Test results: the supplement of paper PMC11417369
The other results are listed elsewhere or left out.

test system: PfHDP1 homeodomain (GST-tagged); test: gcPBM binding intensity (ln(normalized median fluorescence intensity)); higher = stronger DNA binding
How it was run: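 GST-tagged P. falciparum DNA-binding domains produced in E. coli were incubated for 1 h on an Agilent 4 × 180k array of primer-extended double-stranded 36-bp intergenic genomic probes with negative controls. Binding intensity is the highest Masliner-normalised natural-log median intensity across replicate spots of either probe orientation, with bound protein detected by Alexa488 anti-GST antibody at 488 nm.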

| Sequence | gcPBM binding intensity (ln) |
| --- | --- |
| TATATACTCATGCGCACACACAAGTGGGAAATTTGG [CACACA_site5056] | 7.48 |
| GGAAAGACAGTTCACAGTACCCAGGAAATCTACGGA [XGTACX_site1996] | 6.48 |
| ATATATTATAGGTACACACACATATAAGGGATTATA [CACACA_site6154] | 6.84 |
| ATATATATATATATTGTGCACAAAAAAAAATAAGCA | 10.7 |
| ATATACATATATATTGCATGCAGAGAGTATTTATAA [TGCATGCA_site646] | 7.12 |
| CTTTGTAGTATATTAACACACAACTGTTTATAATAT [CACACA_site6038] | 6.53 |
| ATATAAGAAATAAAGAAAAATGTGTTTTTTTTTTTT [XGTACX_negctrl_site396] | 6.09 |
| TTTTTCCTAACATATTATATACTTGAATATTTATTA [CACACA_negctrl_site156] | 6.18 |
| AAACAAATATTTATCACAATGTCATTTTGTTAACAT [GTGCAC_negctrl_site171] | 6.53 |
| AGAGCTGTTTTTTATGCATGTAGTTTAGAAAATACA [TGCATGCA_site257] | 6.15 |
| TTTATCTTATTTTTATGTACTTATTTTATAAAAAAA [XGTACX_site7730] | 6.97 |
| CGTTCATATTATTATAGTACATATTATTATAGTTTT [XGTACX_site1550] | 6.52 |
| TTTTTTTTTTTATTTGCATGCGGTGTTCATAATATT [TGCATGCA_site199] | 6.5 |
| TATTTGTAAATTATTTGGGTGTGTAGGGGATATTCT [XGTACX_negctrl_site204] | 7.13 |
| TTGGTGGATAAATTTACACACAATAACTTTCGTTCA [CACACA_site6358] | 6.37 |
| AGAAGAAAAGTAAAAAGTACATTATTCATGGCCTAT [XGTACX_site5601] | 5.91 |
| TTATAATATAGCAATTATTAAATAGGATCAAATGAA [CACACA_negctrl_site632] | 6.38 |
| TTCTTTATTTATCATTATAAGAAGAGTTGATTTGTT [XGTACX_negctrl_site555] | 6.23 |
| TATAAATACTAAAAAAGTACAAAATTTCATAAAAAA [XGTACX_site2709] | 6.47 |
| ATTTTATATAATACATGTACAAAAGTTTAAATTTAT [XGTACX_site6196] | 6.64 |
| AACAAATTTATCCAAAGTACAAAATATCATTTCTTA [XGTACX_site4543] | 5.98 |
| ATTATAATTATATATGCATGTAGCATTTTCTATTTT [TGCATGCA_site66] | 6.75 |

| Sequence | gcPBM binding intensity (ln) |
| --- | --- |
| AACAACATGTAGACGCGTACCAACATCAGATCCTAT [XGTACX_site4071] | 6.37 |
| TATGTTCCATTTTTTGGTACACATACAATAACTGCT [XGTACX_site2256] | 6.19 |
| TTTGTATTGTGCAGATGTACATTATAATATTGGATT [XGTACX_site5033] | 7.83 |
| ATTACATACGAGCACACGTAAAAGTATAATATAAAA [GTGCAC_negctrl_site446] | 6.65 |
| TTATATATAATATATACACACACATGTATATATAAA [CACACA_site8603] | 6.58 |
| AACAAATACAAAGAATAGTCATCTGAATGGTGTTAT [GTGCAC_negctrl_site685] | 6.38 |
| TATTTCTGATTACATACACACATATACAGATATGAC [CACACA_site7490] | 6.88 |
| TATATACCTATATACACACACATATATAAATAAATA [CACACA_site7341] | 6.67 |
| ATAAATAAAATAAAAGCACACAAAATGTAAATAATT [CACACA_site8895] | 6.72 |
| AAAAAAAAAAAAAGTACACACATACCTATAAATATA [CACACA_site6937] | 6.46 |
| TTTACCTCTTCAATGGTGCAATAACTCAAAAATTTG | 9.93 |
| TTTTTATTTTATTAGTGTACTTTATATTTAACAATA [XGTACX_site1175] | 6.57 |
| TTTATTTTTATAAGAGCATGCACTGTTTAAAATGGT [TGCATGCA_site628] | 9.8 |
| TTTATATACATTTTAAATTTTAATGTAACCCATGGG [TGCATGCA_negctrl_site115] | 6.08 |
| TATATATTTATAAATGAACACACACCCAATTTGAAT [CACACA_site9113] | 7.16 |
| TATATATATTTATGTACACACATCAATCATATTAAC [CACACA_site5127] | 6.57 |
| ATAAAGATTAATTCAAGTACACATCAAATACTACAA [XGTACX_site8794] | 6.53 |
| AATATATACATTTATATACACACCTATATATATATA [CACACA_site1972] | 9.13 |
| AAATTAATAAGTCACACACACATATATAATATATAT [CACACA_site799] | 6.87 |
| GTTATATGTTATATATATATATATATATATATATAT [TGCATGCA_negctrl_site428] | 9.32 |
| AGCATCATTTTACACACATGCAAATGTAAAATAGGA [TGCATGCA_site460] | 7.68 |
| CATATACATATATGTAGTACGTGTTCTTCTATATGA [XGTACX_site8344] | 6.66 |

| Sequence | gcPBM binding intensity (ln) |
| --- | --- |
| AAATTGAATTAGTTAACACACAACTTTTATTTCATA [CACACA_site2840] | 6.26 |
| TACATATACAGACACACACACACACCCCCACAAAAA [CACACA_site495] | 8.14 |
| ATTAATATGAAACGATTATAAGAAAGAAAAGAAATG [GTGCAC_negctrl_site701] | 6.54 |
| TTTCTTTTTTTTTTTTTTTCTTTTTTTTTTTTTTTC [CACACA_negctrl_site1025] | 5.53 |
| GGAATATTTTATGAGTGTACATTTTTTTTTTTTTTT [XGTACX_site2370] | 6.56 |
| ATAATCCAACTTTGAGTGCGTGGTGTTTTTTTTTTC | 6.38 |
| ATATTCATATATACTTCACACACATTTTATCATTCA [CACACA_site8784] | 6.6 |
| TATATATACATATACACACATACGTACATACATATA [CACACA_site3585] | 6.9 |
| TACATACATATATATACACACATATATAATATATAT [CACACA_site388] | 6.89 |
| AAAAAAAAAAATAAATAAATAAATAAATATATATAT [TGCATGCA_negctrl_site468] | 7.84 |
| ATGAAAGTAAGACATGCATGGAATTTTTTTTATTAG [TGCATGCA_site348] | 5.95 |
| TATTCCCTTCTTCCTTCTGTTTTTGATATTAAAGGG [GTGCAC_negctrl_site270] | 6.29 |
| ATACTTTATTCGTTAGCACACAATTCAAGTTGATTC [CACACA_site1123] | 6.95 |
| AAGATACCCCAAAATTGTACATATTAAAATAATAAA [XGTACX_site3603] | 7.04 |
| TATAATACAACATGCACACATATATATGTGAATCTC [CACACA_site2490] | 9.18 |
| TTTAAAAATAAAAGTACACACATAAACATATTACAC [CACACA_site1428] | 6.99 |
| AGGTATATATACATATGTACGTATATATATATATAT [XGTACX_site5115] | 9.16 |
| ATAAAATAAACATAAATAAACATAAATAAACAAAAA [CACACA_negctrl_site1270] | 6.59 |
| TTTCTAATTTATATCACACACATATTTATATAGTAA [CACACA_site6813] | 6.52 |
| GGCGTATGTGTATATACACACCCACGTATATAAATA [CACACA_site7489] | 7.38 |
| TTATATAAATTATTTACACACAAACATTTATACTTT [CACACA_site3449] | 6.69 |
| TTTTTTTTTTTTTGCACACACATTGAATTATTATTC [CACACA_site197] | 9.98 |

| Sequence | gcPBM binding intensity (ln) |
| --- | --- |
| TATACCTATATACATACATGCAAATATATATTCATA [TGCATGCA_site269] | 6.83 |
| TATATAGAGAGATATGCACACTGTATGAATGCCCCC [CACACA_site5476] | 9.32 |
| ATAAGAAAATATAAAATGCACACTATAAATTGTATA [CACACA_site143] | 9.14 |
| TTGTAAAACTTATAATGTACATTTTTTTTTTTTTTT [XGTACX_site5398] | 6.44 |
| AGGGACATCTATATCACACACAAAAATTAGTCCCTT [CACACA_site7330] | 6.42 |
| TTTTTTTTTTTTGAAGTGCATTACTTTTTTTGTATT [GTGCAC_site9811] | 8.58 |
| TTTTTTGTGTTTGGTACACACGTTATAAAAAATAAA [CACACA_site4866] | 6.43 |
| GAAAATAGCTAAAATACACACAATTAAAAATTATTA [CACACA_site3506] | 6.09 |
| AGGAATATAAAGTGCACACATAATTTGGGGGCAAAA [CACACA_site258] | 9.6 |
| ATATGTCACTTGTATACACACATATATATTTCAATC [CACACA_site3256] | 7.79 |
| CTGAAAAAAAAGCTTGCACACGTATTTGCTTTATGT [CACACA_site8427] | 8.25 |
| TTACTTATAAATAAATATACAAAAATGTTATATATA [XGTACX_negctrl_site223] | 5.76 |
| TTTTTTTTGTGTTCAAGTACAAAATTTTAAAGGTCA [XGTACX_site4011] | 6.28 |
| TATATATATATATAAGCACACAAACAAAAAAAATTA [CACACA_site9293] | 8.9 |
| GGTTATTTCACAGAATGTACTTATTATATATAAAAT [XGTACX_site8886] | 6.24 |
| AAGATAAATTATTATAAATCAATTGTGCCAACAATA [CACACA_negctrl_site144] | 6.27 |
| TGGTCTTTTAAACAAAAATATAAATTTTTAAATATG [CACACA_negctrl_site392] | 6.25 |
| AGCTTGTGGATGCAGGTGCTACATTTGTTCTATAAT [GTGCAC_site9645] | 6.29 |
| AATTTAATATAATGCACACATAAAAAAAAAAAATTC [CACACA_site1504] | 10.6 |
| AAGAAAATTGTCTGAAGTACAAAACATTAATAATAT [XGTACX_site4864] | 6.59 |
| TATAAAAATATTTCTACACACATTAAAATATATATA [CACACA_site4770] | 6.44 |
| AATGAAAGGATGCTGTGTACATATATATATATATAT [XGTACX_site7901] | 9.38 |
